Where “and” joins values, the source holds several entries; their conditions need not be identical. Equal entries are not always repeated. The whole screen tested about 370,000 compounds, of which about 150 (0.041%) were called active. The inconclusive results got no clear call from the source; some entries with a clear call stand among them for comparison. Calls come from the whole dose curve; as a rule, active = well fitted inhibition curve with a large enough effect; inconclusive = small, poorly fitted or top-dose-only effect; inactive = flat fitted curve, though single readings scatter. Where the call is inconclusive, the potency comes from a doubtful curve fit. Peptide text beside a SMILES is read from it. * marks the point of attachment. Boc = CC(C)(C)OC(=O)*; Bn = c1ccc(C*)cc1
Molecular target: Beta-lactamase (Escherichia coli (strain K12)) (UniProt P00811)
Sequence of UniProt P00811 (P00811 whole entry, looked up): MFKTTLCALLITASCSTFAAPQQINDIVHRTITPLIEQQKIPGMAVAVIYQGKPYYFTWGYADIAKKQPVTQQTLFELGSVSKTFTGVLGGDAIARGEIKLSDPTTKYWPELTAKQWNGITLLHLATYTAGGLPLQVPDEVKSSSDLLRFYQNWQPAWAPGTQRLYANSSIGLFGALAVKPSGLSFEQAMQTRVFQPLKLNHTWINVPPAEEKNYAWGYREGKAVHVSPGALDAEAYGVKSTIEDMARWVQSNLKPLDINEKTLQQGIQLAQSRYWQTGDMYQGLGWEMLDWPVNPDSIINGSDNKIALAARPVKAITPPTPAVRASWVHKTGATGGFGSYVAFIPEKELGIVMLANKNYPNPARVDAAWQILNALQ
Assay: qHTS Inhibitors of AmpC Beta-Lactamase (assay with detergent); note: nearly all actives have a fitted effect of over 25% in size
Conditions: AmpC hydrolysis of nitrocefin, absorbance 480 nm, 0.01% Triton; series mostly up to 114 µM
In short: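 AmpC (5.3 nM in the dispensed reagent) in 20 mM phosphate pH 7.0 with 0.01% (detergent screen) or 0.0001% Triton X-100 was preincubated with compounds for 15 min at room temperature. Nitrocefin was then added from an 800 uM solution, and hydrolysis was followed at 480 nm.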
Potency is the fitted concentration of half-maximal effect; tags give direction and shape of the fitted curve.

Row | Structure (SMILES) | Potency
1 | CNc1cc([N+](=O)[O-])ccc1N/C=C/C(=O)c1cccs1 | inconclusive: 56.2 µM [inhibitor, partial curve, poor fit]
2 | O=C(c1ccc(COc2c(F)c(F)c(F)c(F)c2F)o1)N1CCN(Cc2ccc3c(c2)OCO3)CC1 | inconclusive: 31.6 µM [inhibitor, partial curve, poor fit]
3 | O=C(C1CCCN1S(=O)(=O)c1cccc2cccnc12)N1CCc2ccccc21 (configuration not stated) | inconclusive: 112 µM [inhibitor, partial curve, poor fit]
4 | CCN(CC)C(=O)COc1ccc(-c2nnc(N3CCCCC3)c3ccccc23)cc1 | inconclusive: 63.1 µM [inhibitor, partial curve, poor fit]
5 | O=C(CNC(=O)c1ccco1)Nc1ccc2c(c1)OCCO2 | inconclusive: 2.51 µM [inhibitor, full curve, poor fit]
6 | CCOC(=O)C1=C(C)NC(=O)/C1=C\N(C)C | inactive
7 | CN(C)CCN1C(=O)C(=O)/C(=C(/O)c2ccc(S(=O)(=O)N3CCOCC3)cc2)C1c1ccccc1 (configuration not stated) | inconclusive: 112 µM [inhibitor, partial curve, poor fit]
8 | COc1ccccc1N1CC(C(=O)Nc2nc(C)cs2)CC1=O (configuration not stated) | inconclusive: 0.631 µM [inhibitor, full curve, poor fit]
9 | O=C(COc1ccccc1F)N1CCCc2ccccc21 | inconclusive: 15.8 µM [inhibitor, full curve, poor fit]
10 | CC(C)Sc1nc2c(c(=O)[nH]c(=O)n2C)n1Cc1ccc(Cl)cc1 | inconclusive: 112 µM [inhibitor, partial curve, poor fit]
11 | COc1ccc2nc(NC(=O)CSc3nnnn3C)sc2c1 | inactive
12 | CCOc1ccc(OCCC(=O)OCC(=O)Nc2ccc(C)c(S(=O)(=O)N3CCCCC3)c2)cc1 | inconclusive: 1.78 µM [inhibitor, full curve]
13 | CCCn1cnc2cc(NCc3ccccn3)ccc21 | inconclusive: 70.8 µM [inhibitor, partial curve, poor fit]
14 | CCCCC(=O)Nc1nn(C)c2nc3c(C)cccc3cc12 | inconclusive: 3.16 µM [inhibitor, full curve]
15 | O=C(NCc1cccc(Cl)c1)c1ccc2nc[nH]c2c1 | inconclusive: 39.8 µM [inhibitor, single point]
16 | COC(=O)CNC(=O)COC(=O)c1ccc(OC)c([N+](=O)[O-])c1 | inactive
17 | Cc1c(-c2ccc(Cl)cc2)[n+](=O)c(-c2ccccc2)cn1[O-] | inactive
18 | COc1ccc(OC)c(NC(=O)C2CC(=O)N(c3ccc(Br)cc3)C2)c1 (configuration not stated) | inconclusive: 2 µM [inhibitor, full curve, poor fit]
19 | COc1cc(C2c3c(-c4c(C)cc(C)cc4O)n[nH]c3C(=O)N2CCO)cc(OC)c1OC (configuration not stated) | inconclusive: 3.98 µM [inhibitor, single point]
20 | O=C(CN1C(=O)COc2ccc(S(=O)(=O)N3CCOCC3)cc21)N1CCN(c2cccc(C(F)(F)F)c2)CC1 | inactive
21 | Cc1ccc(CN(C(=O)COc2ccc(Cl)c(C)c2)c2ccccn2)o1 | inactive
22 | CC(C)CC(NC(=O)C(NC(=O)C(Cc1ccc(OCc2ccccc2)cc1)NC(=O)OC(C)(C)C)C(C)C)C(N)=O (stereo not drawn) (Boc-Tyr(Bn)-Val-Leu-NH2; configuration not given here) | inconclusive: 56.2 µM [inhibitor, partial curve]
23 | Cc1ccccc1NC(=S)N(Cc1ccccc1)Cc1cccnc1 | inconclusive: 0.631 µM [inhibitor, full curve, poor fit]

Row | Structure (SMILES) | Potency
24 | Cc1cccc(CC2CC(=O)N(C3CCCCC3)C2=O)c1 (configuration not stated) | inconclusive: 35.5 µM [inhibitor, full curve, poor fit]
25 | CCCNC(=S)NC1CC2CCC(C1)N2Cc1ccccc1 (configuration not stated) | inactive
26 | CC(=O)c1ccc(OCCCC(=O)NCCc2ccccc2)cc1 | inactive
27 | CCN1CCN(c2nc(S(=O)(=O)c3ccc(C)cc3)c(Cl)s2)CC1 | inconclusive: 56.2 µM [inhibitor, partial curve]
28 | CCC(CC)NC(=O)c1ccccc1Oc1ccccc1 | inactive
29 | CCCCN(CCCC)CP(=O)(c1ccccc1)c1ccccc1 | inactive
30 | CC1=C(C(=O)NC2CCCC(C)C2C)C2(CCCCC2)OC1=O (configuration not stated) | inactive
31 | Cc1ccc(CSc2ccc(-c3cccs3)nn2)cc1 | inconclusive: 89.1 µM [inhibitor, single point]
32 | Cc1oc(CSCC2CCCO2)cc1C(=O)O (configuration not stated) | inconclusive: 0.631 µM [inhibitor, full curve, poor fit]
33 | COCCNC(=O)C(C)N1c2cccc3cccc(c23)S1(=O)=O (configuration not stated) | inconclusive: 28.2 µM [inhibitor, single point]
34 | COCCNC(=O)C(=O)NCC(c1cccnc1)N1CCN(c2ccccc2OC)CC1 (configuration not stated) | inactive
35 | Cc1ccc(OCC(=O)N/N=C/c2cn[nH]c2-c2ccc(Cl)c(Cl)c2)cc1 | inconclusive: 89.1 µM [inhibitor, single point]
36 | Cc1cc(CSc2ccccc2)ccc1NC(=O)c1ccc(Br)cc1 | inconclusive: 112 µM [inhibitor, partial curve, poor fit]
37 | Cc1nn(CC(=O)Nc2ccc(C#N)cc2)c(C)c1[N+](=O)[O-] | inconclusive: 0.631 µM [inhibitor, full curve, poor fit]
38 | COc1ccc(/C(C)=N/NC(=O)Cn2nc([N+](=O)[O-])cc2C)cc1 | inconclusive: 1.12 µM [inhibitor, full curve, poor fit]
39 | COC(=O)C1(C)Nc2ccccc2C(=O)N1c1ccccc1C (configuration not stated) | inconclusive: 10 µM [inhibitor, full curve]
40 | O=C(CCC(=O)N1CCN(c2ccc(O)cc2)CC1)c1cccs1 | inactive
41 | CCOC(=O)CSc1nc(N)c(C#N)c(-c2cccs2)c1C#N | inconclusive: 11.2 µM [inhibitor, full curve]
42 | CCOC(=O)c1ccc(NC(=O)CCS(=O)(=O)c2ccc(C)cc2)cc1 | inactive
43 | COCCCNC(=S)Nc1ccc(S(=O)(=O)Nc2cc(OC)nc(OC)n2)cc1 | inconclusive: 14.1 µM [inhibitor, full curve, poor fit]
44 | CC(=O)Nc1ccc(NC(=O)CSc2nc3c(=O)n(C)c(=O)n(C)c3n2C)cc1 | inconclusive: 4.47 µM [inhibitor, full curve, poor fit]
45 | CC(=O)Nc1ccc(S(=O)(=O)N(C)CC(=O)OCC(=O)N2CCN(C(=O)c3ccco3)CC2)cc1 | inactive
46 | COc1ccc(C(=O)O/N=C2\CCCc3nonc32)cc1 | inconclusive: 0.631 µM [inhibitor, full curve, poor fit]

Row | Structure (SMILES) | Potency
47 | CCOC(=O)Cc1csc(NS(=O)(=O)c2ccc(F)cc2)n1 | inactive
48 | CCOC(=O)c1c(NC(=O)C2=C(C)NC(=S)NC2c2ccc(CC)cc2)sc(C)c1C (configuration not stated) | inactive
49 | CN(CC(=O)Nc1c(Cl)cccc1Cl)C(=O)Cc1cccs1 | inconclusive: 0.708 µM [inhibitor, full curve, poor fit]
50 | O=S(=O)(NCCc1ccncc1)c1ccc(S(=O)(=O)N2CCCCCC2)cc1 | inconclusive: 1.41 µM [inhibitor, full curve, poor fit]
51 | COc1ccc(-c2cnc(N)n2CC2CCCO2)cc1 (configuration not stated) | inconclusive: 5.01 µM [inhibitor, full curve, poor fit]
52 | Cc1cccc(C)c1OCCSc1nc2ccccc2n1CC(=O)O | inactive and inconclusive: 562 nM [inhibitor, full curve, poor fit]
53 | CCC1CCCCN1CCCNC(=O)c1ccc(CS(=O)(=O)c2ccccc2C)o1 (configuration not stated) | inconclusive: 12.6 µM [inhibitor, full curve, poor fit]
54 | CC(C)[C@H](NC(=O)OC(C)(C)C)C(=O)N/N=C/c1ccc2nccnc2c1 | inconclusive: 1.12 µM [inhibitor, full curve, poor fit]
55 | O=CN1CCN(C(=O)C(=O)c2cn(CC(=O)N3CCCCC3)c3ccccc23)CC1 | inactive
56 | CCCCNC(=O)CS(=O)Cc1nc(-c2cccc(Cl)c2)oc1C (configuration not stated) | inconclusive: 28.2 µM [inhibitor, full curve, poor fit]
57 | Cn1c(NC(=O)C2CC2)cc(=O)n(C)c1=O | inconclusive: 112 µM [inhibitor, partial curve]
58 | Cc1cccc(OCCOC(=O)Nc2ccccc2)c1 | inactive
59 | COCCN(Cc1cc2cc(C)ccc2[nH]c1=O)S(=O)(=O)c1ccc(Cl)cc1 | inconclusive: 5.01 µM [inhibitor, single point]
60 | O=C1C(Cc2ccccc2)Nc2ncnc(N3CCOCC3)c2N1Cc1ccc(Br)cc1 (configuration not stated) | inconclusive: 0.631 µM [inhibitor, full curve]
61 | NNc1nc2c(Cl)cccc2s1 | inconclusive: 1.26 µM [inhibitor, full curve, poor fit]
62 | CCc1ccc(N(CC(=O)NC2CC2)S(=O)(=O)c2ccc(C)cc2)cc1 | inactive
63 | Cc1cc(C)cc(NC(=O)c2cccnc2)c1 | inactive
64 | COc1ccccc1CNC(=O)CN1C(=O)NC(c2ccccc2)(c2ccc(C)c(C)c2)C1=O (configuration not stated) | inconclusive: 4.47 µM [inhibitor, single point]
65 | CCOc1cc(-c2noc(CCC(=O)NCCc3ccccc3)n2)ccc1OC | inconclusive: 0.708 µM [inhibitor, full curve]
66 | CCOC(=O)c1cccc(NC(=O)c2cc(S(=O)(=O)N3CCCCCC3)cn2C)c1 | inactive
67 | CC1(C)CC(=O)C2=C(C1)N(c1ccc(F)cc1)C(=O)CC2c1cccnc1 (configuration not stated) | inconclusive: 4.47 µM [inhibitor, full curve]
